Source: the supplement of paper PMC9446081
Hit rate of the full screen: of about 39,000 compounds, about 220 (0.56%) showed activity. The list shows a part of the results.

Test system: Escherichia coli K-12 BW25113
Experiment: relative growth (OD600 normalised to plate interquartile mean) (fraction); higher = less growth inhibition, active = 0.2 or less
Details: 50 µM; LB; incubation time: overnight (16-24 h)
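Note: static incubation at 37 °C against the wild-type strain, values averaged over two biological replicates.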

SMILES	relative growth
CC1CN(c2c(F)c(N)c3c(=O)c(C(=O)O)cn(C4CC4)c3c2F)CC(C)N1 (configuration not stated)	active: 0.0495
COc1ccc(NC(=O)N(C)C[C@H]2OCCCC[C@H](C)Oc3ccc(NC(=O)NC4CCCCC4)cc3C(=O)N([C@H](C)CO)C[C@H]2C)cc1	inactive: 1.01
C[C@@H]1CN([C@@H](C)CO)C(=O)c2cc(NC(=O)C3CCCCC3)ccc2O[C@@H](C)CCCCO[C@H]1CN(C)C(=O)Nc1ccccc1	inactive: 1.02
C[C@@H]1CCCCO[C@@H](CN(C)S(=O)(=O)c2cccs2)[C@@H](C)CN([C@@H](C)CO)C(=O)c2cc(NC(=O)Nc3ccccc3)ccc2O1	inactive: 1.06
CS(=O)(=O)NCc1cnc2n1CCN(C(=O)[C@H]1CCOC1)CC2	inactive: 1.05
C[C@@H]1COC(=O)[C@H](Cc2ccc(F)cc2)CC=CC[C@@H](CC(=O)N(CCO)Cc2ccccc2)C(=O)N1	inactive: 1.01
COc1ccc(NC(=O)N(C)C[C@H]2Oc3ccc(NC(=O)CCCN(C)C)cc3C(=O)N([C@H](C)CO)C[C@@H]2C)cc1	inactive: 1.03
CN1C(=O)c2cc(NC(=O)C3CCOCC3)ccc2OC[C@@H]2O[C@H](CC(=O)NCCc3ccncc3)CC[C@H]21	inactive: 1.01
Cc1ccc(S(=O)(=O)Nc2ccc3c(c2)C(=O)N([C@@H](C)CO)C[C@@H](C)[C@H](CN(C)S(=O)(=O)c2ccc(C)cc2)OCCCC[C@H](C)O3)cc1	inactive: 1.03
Cc1noc(C)c1S(=O)(=O)Nc1ccc2c(c1)C(=O)N([C@@H](C)CO)C[C@H](C)[C@H](CN(C)C(=O)Nc1cccc3ccccc13)OCCCC[C@H](C)O2	inactive: 0.991
c1csc(CNc2ccc(NCc3cccs3)cc2)c1	inactive: 0.996
C[C@@H]1CCCCO[C@@H](CN(C)C(=O)Nc2ccc(C(F)(F)F)cc2)[C@H](C)CN([C@H](C)CO)C(=O)c2cc(NS(=O)(=O)c3cn(C)cn3)ccc2O1	inactive: 0.924
CO[C@@H]1CN(C)C(=O)c2cc(NC(=O)Nc3ccccc3F)ccc2OC[C@@H](C)N(CCC(F)(F)F)C[C@H]1C	inactive: 1.03
CCS(=O)(=O)N1CC[C@]2(CC1)CN(CC1CCOCC1)[C@@H](CO)c1c2c2ccc(cc2n1C)OC	inactive: 0.995
CC(=O)OC1CC2C(C)(C)C(=O)CCC2(C)C2CCC3(C)C(c4ccoc4)OC(=O)C4OC43C12C (configuration not stated)	inactive: 1.15
COCC(=O)Nc1ccc2c(c1)C(=O)N(C)C[C@@H](OC)[C@H](C)CN(C(=O)Cc1cccnc1)[C@H](C)CO2	inactive: 0.975
C[C@@H]1CN([C@H](C)CO)C(=O)c2c(c3ccccc3n2C)-c2ccccc2CO[C@H]1CN(C)Cc1cccc(O)c1	inactive: 0.928
N[C@@H](C(=O)O)c1ccc(O)c(C(=O)O)c1	inactive: 1.01
C[C@@H]1CCCCO[C@@H](CN(C)C(=O)CCCN(C)C)[C@H](C)CN([C@@H](C)CO)C(=O)c2cc(NC(=O)Nc3cccc4ccccc34)ccc2O1	inactive: 0.994

SMILES	relative growth
C/C=C/C(=O)c1cc(Cl)ccc1O	inactive: 0.964
Cc1noc(C)c1S(=O)(=O)N(C)C[C@H]1OCCCC[C@H](C)Oc2ccc(NC(=O)Nc3cccc4ccccc34)cc2C(=O)N([C@@H](C)CO)C[C@@H]1C	inactive: 1.04
C[C@H]1CCCCO[C@H](CN(C)C(=O)c2ccccc2)[C@@H](C)CN([C@@H](C)CO)C(=O)c2cc(NC(=O)Cc3ccccc3)ccc2O1	inactive: 0.996
Cc1noc(C)c1NC(=O)N(C)C[C@@H]1Oc2ccc(NC(=O)Nc3ccc(C(F)(F)F)cc3)cc2CC(=O)N([C@@H](C)CO)C[C@@H]1C	inactive: 0.905
CNC[C@@H]1Oc2ccc(NC(=O)Cn3cnnn3)cc2C(=O)N([C@H](C)CO)C[C@H]1C	inactive: 0.995
C[C@@H]1CN([C@H](C)CO)C(=O)Cc2cc(N(C)C)ccc2O[C@@H]1CN(C)S(=O)(=O)c1ccc(Cl)cc1	inactive: 0.997
C[C@H]1CN([C@@H](C)CO)C(=O)c2c(c3ccccc3n2C)-c2ccccc2CO[C@H]1CN(C)Cc1cccc2c1OCCCO2	inactive: 0.999
O=C(C[C@H]1CC[C@H]2[C@@H](COC[C@@H](O)CN2S(=O)(=O)c2ccc(Cl)cc2)O1)N[C@H]1CCN(Cc2ccccc2)C1	inactive: 1.02
C[C@@H]1CN([C@@H](C)CO)C(=O)c2cc(NS(=O)(=O)c3ccccc3)ccc2O[C@@H](C)CCCCO[C@H]1CN(C)Cc1ccccc1	inactive: 0.979
C[C@@H]1CN([C@H](C)CO)C(=O)c2cccc(NC(=O)c3nc4ccccc4s3)c2O[C@H]1CN(C)S(C)(=O)=O	inactive: 0.991
COc1ccc(S(=O)(=O)N(C)C[C@H]2Oc3c(NC(=O)c4cnccn4)cccc3C(=O)N([C@@H](C)CO)C[C@H]2C)cc1	inactive: 1.01
Cc1ccc(S(=O)(=O)Nc2ccc3c(c2)C(=O)N([C@@H](C)CO)C[C@@H](C)[C@H](CN(C)S(C)(=O)=O)O3)cc1	inactive: 0.994
COc1ccc(NC(=O)N(C)C[C@H]2OCCCC[C@@H](C)Oc3ccc(NS(=O)(=O)c4ccccc4)cc3C(=O)N([C@H](C)CO)C[C@@H]2C)cc1	inactive: 1.01
CC(C)NC(=O)Nc1ccc2c(c1)C(=O)N([C@H](C)CO)C[C@@H](C)[C@H](CN(C)S(C)(=O)=O)OCCCC[C@H](C)O2	inactive: 1.01
CN1CCN(C(=O)C[C@@H]2CC[C@@H]3[C@H](COC[C@H](O)CN3Cc3ccc4c(c3)OCO4)O2)CC1	inactive: 0.981
CCCNC(=O)N[C@H]1C=C[C@H](CC(=O)N2CCN(C)CC2)O[C@H]1CO	inactive: 0.985
CC(CCC(=O)O)C1CCC2C3CC(O)C4CC(O)CCC4(C)C3CCC12C (stereo not drawn) [alpha-HYDROXYDEOXYCHOLIC ACID]	inactive: 1.14
C[C@@H]1CCCCO[C@@H](CN(C)C(=O)CCCN(C)C)[C@@H](C)CN([C@@H](C)CO)C(=O)c2cc(N(C)C)ccc2O1	inactive: 1.02
COc1cccc(NC(=O)C[C@H]2CC[C@H]3[C@@H](COc4ccc(NC(=O)C5CCOCC5)cc4C(=O)N3C)O2)c1	inactive: 1

SMILES	relative growth
CC(C)NC(=O)Nc1ccc2c(c1)C(=O)N([C@H](C)CO)C[C@@H](C)[C@@H](CN(C)Cc1ccc(C(F)(F)F)cc1)OCCCC[C@H](C)O2	inactive: 0.797
C[C@H](CO)N1C[C@H](C)[C@H](CN(C)Cc2ccc(Cl)c(Cl)c2)Oc2ccc(NC(=O)Cc3ccccc3)cc2CC1=O	inactive: 1.01
Cc1noc(C)c1NC(=O)Nc1ccc2c(c1)C(=O)N([C@H](C)CO)C[C@@H](C)[C@H](CN(C)C(=O)Nc1cccc3ccccc13)OCCCC[C@H](C)O2	inactive: 1
COc1ccc(S(=O)(=O)N(C)C[C@@H]2Oc3c(NS(=O)(=O)c4ccc(F)cc4)cccc3C(=O)N([C@H](C)CO)C[C@H]2C)cc1	inactive: 0.984
C[C@@H]1CN([C@@H](C)CO)C(=O)Cc2cc(NC(=O)Cc3cn(C)c4ccccc34)ccc2O[C@H]1CN(C)Cc1ccc(-c2ccccc2)cc1	inactive: 1.01
C=CCOC(=O)[C@H]1[C@@H]2C(=O)O[C@@H](c3ccccc3)[C@@H](c3ccccc3)N2[C@@H](c2ccc(OCCOC(=O)[C@H]3C[C@H]4C(=O)N5CCC[C@H]5C(=O)N4[C@H]3c3ccc(O)cc3)cc2)[C@]12C(=O)Nc1ccc(I)cc12	inactive: 1.02
Cc1ccc(C(C)C)cc2c(C)ccc1-2	inactive: 1.09
C[C@H](CO)N1C[C@H](C)[C@H](CN(C)S(C)(=O)=O)Oc2ccc(NC(=O)Nc3ccccc3)cc2CC1=O	inactive: 0.984
C[C@@H]1CCCCO[C@H](CN(C)Cc2ccc(C(=O)O)cc2)[C@H](C)CN([C@@H](C)CO)C(=O)c2cc(NS(=O)(=O)c3cccs3)ccc2O1	inactive: 1.01
CC(C)(C)S(=O)N1Cc2cc(C(=O)Nc3ccc(-c4ccccc4)cc3)nc(-c3cccc(-c4cccc(F)c4)c3)c2[C@@H]1CCO (some centres not stated)	inactive: 0.999
CC(C)NC(=O)Nc1ccc2c(c1)C(=O)N([C@H](C)CO)C[C@@H](C)[C@H](CN(C)S(=O)(=O)c1ccc(F)cc1)O2	inactive: 1.02
COCCNC(=O)C[C@H]1CC[C@H]2[C@@H](COC[C@@H](O)CN2S(=O)(=O)c2ccccc2F)O1	inactive: 0.964
C[C@H](CO)N1C[C@H](C)[C@H](CN(C)Cc2ccc(C(=O)O)cc2)OCCCC[C@H](C)Oc2ccc(NC(=O)Nc3cccc4ccccc34)cc2C1=O	inactive: 1.04
C[C@@H]1CCCCO[C@H](CN(C)S(C)(=O)=O)[C@@H](C)CN([C@H](C)CO)C(=O)c2cc(NS(=O)(=O)c3cn(C)cn3)ccc2O1	inactive: 0.989
NC(=O)NCC#Cc1ccc2c(c1)[C@]1(C(=O)N2)[C@H](C(=O)Nc2nc3ccccc3s2)[C@H]2C(=O)O[C@H](c3ccccc3)[C@H](c3ccccc3)N2[C@@H]1c1ccccc1OCCO	inactive: 1.04
Cc1ccc(S(=O)(=O)Nc2ccc3c(c2)C(=O)N([C@H](C)CO)C[C@H](C)[C@@H](CN(C)C(=O)Nc2ccc(C(F)(F)F)cc2)OCCCC[C@H](C)O3)cc1	inactive: 1
CCn1nnc2c(N3CCOCC3)ncnc21	inactive: 0.986
C[C@H]1CCCCO[C@@H](CN(C)S(=O)(=O)c2cccs2)[C@@H](C)CN([C@@H](C)CO)C(=O)c2cc(NC(=O)Nc3ccc(F)cc3)ccc2O1	inactive: 1.04
COc1ccc(N2C[C@H](C(N)=O)CC2=O)cc1	inactive: 1.03
